Test results as given in patent publication US20240101682A1 (PINETREE THERAPEUTICS, published 2024).

How the values were obtained:
[1] = molecular target: T1, recombinant human NRP1, biotinylated (human, UniProt O14786-2 22-644, limits assumed, biotinylated (site not stated)); assay: BLI (Octet Red 96), biotinylated antigen on streptavidin sensor, bsAb in solution, bivalent format
T1 construct: also called huNRP1; recombinant NRP1

[2] = molecular target: T2, recombinant human EGFR, biotinylated (human, UniProt P00533 fragment, biotinylated (site not stated)); assay: as above
T2 construct: also called huEGFR; recombinant huEGFR

B1: bsAb with heavy chain polypeptide SEQ ID NO: 7 and light chain SEQ ID NO: 12 (bispecific antibody, human IgG1, kappa)
heavy: QVQLQESGPGLVKPSETLSLTCTVSGGSVSSGDYYWTWIRQSPGKGLEWIGHIYYSGNTNYNPSLKSRLTISIDTSKTQFSLKLSSVTAADTAIYYCVRDRVTGAFDIWGQGTMVTVSS[human IgG1 constant region not written out]GGGGSGGGGSGGGGSEVQLVESGGGLVQPGGSLRLSCAASGFTFSSYAMSWVRQAPGKGLEWVSQISPAGGYTNYADSVKGRFTISADTSKNTAYLQMNSLRAEDTAVYYCARGELPYFRMSKVMDVWGQGTLVTVSSGGGGSGGGGSGGGGSDIQMTQSPSSLSASVGDRVTITCRASQFLSSYLAWYQQKPGKAPKLLIYGASARASGVPSRFSGSGSGTDFTLTISSLQPEDFATYYCQQYLASPATFGQGTKVEIK
light: DIQMTQSPSSLSASVGDRVTITCQASQDISNYLNWYQQKPGKAPKLLIYDASNLETGVPSRFSGSGSGTDFTFTISSLQPEDIATYFCQHFDHLPLAFGGGTKVEIKRTVAAPSVFIFPPSDEQLKSGTASVVCLLNNFYPREAKVQWKVDNALQSGNSQESVTEQDSKDSTYSLSSTLTLSKADYEKHKVYACEVTHQGLSSPVTKSFNRGEC
[1]
  Kd: 0.28 nM
[2]
  Kd: < 0.1 nM

B2: bsAb with heavy chain polypeptide SEQ ID NO: 8 and light chain SEQ ID NO: 12 (bispecific antibody, human IgG1, kappa)
heavy: QVQLQESGPGLVKPSETLSLTCTVSGGSVSSGDYYWTWIRQSPGKGLEWIGHIYYSGNTNYNPSLKSRLTISIDTSKTQFSLKLSSVTAADTAIYYCVRDRVTGAFDIWGQGTMVTVSS[human IgG1 constant region not written out]GGGGSGGGGSGGGGSEVQLVESGGGLVQPGGSLRLSCAASGFTFSSYAMSWVRQAPGKGLEWVSQISPAGGYTNYADSVKGRFTISADTSKNTAYLQMNSLRAEDTAVYYCARGELPYFRMSKVMDVWGQGTLVTVSSGDGSSGGGGASDIQMTQSPSSLSASVGDRVTITCRASQFLSSYLAWYQQKPGKAPKLLIYGASARASGVPSRFSGSGSGTDFTLTISSLQPEDFATYYCQQYLASPATFGQGTKVEIK
light: DIQMTQSPSSLSASVGDRVTITCQASQDISNYLNWYQQKPGKAPKLLIYDASNLETGVPSRFSGSGSGTDFTFTISSLQPEDIATYFCQHFDHLPLAFGGGTKVEIKRTVAAPSVFIFPPSDEQLKSGTASVVCLLNNFYPREAKVQWKVDNALQSGNSQESVTEQDSKDSTYSLSSTLTLSKADYEKHKVYACEVTHQGLSSPVTKSFNRGEC
[1]
  Kd: 2 nM
[2]
  Kd: < 0.1 nM

B3: bsAb with heavy chain polypeptide SEQ ID NO: 9 and light chain SEQ ID NO: 12 (bispecific antibody, human IgG1, kappa)
heavy: QVQLQESGPGLVKPSETLSLTCTVSGGSVSSGDYYWTWIRQSPGKGLEWIGHIYYSGNTNYNPSLKSRLTISIDTSKTQFSLKLSSVTAADTAIYYCVRDRVTGAFDIWGQGTMVTVSS[human IgG1 constant region not written out]GGGGSGGGGSGGGGSEVQLVESGGGLVQPGGSLRLSCAASGFTFSSYAMSWVRQAPGKGLEWVSQISPAGGYTNYADSVKGRFTISADTSKNTAYLQMNSLRAEDTAVYYCARGELPYFRMSKVMDVWGQGTLVTVSSGGGGSGGGGSGGGGSGGGGSDIQMTQSPSSLSASVGDRVTITCRASQFLSSYLAWYQQKPGKAPKLLIYGASARASGVPSRFSGSGSGTDFTLTISSLQPEDFATYYCQQYLASPATFGQGTKVEIK
light: DIQMTQSPSSLSASVGDRVTITCQASQDISNYLNWYQQKPGKAPKLLIYDASNLETGVPSRFSGSGSGTDFTFTISSLQPEDIATYFCQHFDHLPLAFGGGTKVEIKRTVAAPSVFIFPPSDEQLKSGTASVVCLLNNFYPREAKVQWKVDNALQSGNSQESVTEQDSKDSTYSLSSTLTLSKADYEKHKVYACEVTHQGLSSPVTKSFNRGEC
[1]
  Kd: 0.88 nM
[2]
  Kd: < 0.1 nM

B4: bsAb with heavy chain polypeptide SEQ ID NO: 10 and light chain SEQ ID NO: 12 (bispecific antibody, human IgG1, kappa)
heavy: QVQLQESGPGLVKPSETLSLTCTVSGGSVSSGDYYWTWIRQSPGKGLEWIGHIYYSGNTNYNPSLKSRLTISIDTSKTQFSLKLSSVTAADTAIYYCVRDRVTGAFDIWGQGTMVTVSS[human IgG1 constant region not written out]GGGGSGGGGSGGGGSDIQMTQSPSSLSASVGDRVTITCRASQFLSSYLAWYQQKPGKAPKLLIYGASARASGVPSRFSGSGSGTDFTLTISSLQPEDFATYYCQQYLASPATFGQGTKVEIKGGGGSGGGGSGGGGSEVQLVESGGGLVQPGGSLRLSCAASGFTFSSYAMSWVRQAPGKGLEWVSQISPAGGYTNYADSVKGRFTISADTSKNTAYLQMNSLRAEDTAVYYCARGELPYFRMSKVMDVWGQGTLVTVSS
light: DIQMTQSPSSLSASVGDRVTITCQASQDISNYLNWYQQKPGKAPKLLIYDASNLETGVPSRFSGSGSGTDFTFTISSLQPEDIATYFCQHFDHLPLAFGGGTKVEIKRTVAAPSVFIFPPSDEQLKSGTASVVCLLNNFYPREAKVQWKVDNALQSGNSQESVTEQDSKDSTYSLSSTLTLSKADYEKHKVYACEVTHQGLSSPVTKSFNRGEC
[1]
  Kd: 0.25 nM
[2]
  Kd: < 0.1 nM

B5: bispecific antibody with heavy chain SEQ ID NO: 11 and light chain SEQ ID NO: 12 (Construct 11) (bispecific antibody, human IgG1, kappa)
heavy: QVQLQESGPGLVKPSETLSLTCTVSGGSVSSGDYYWTWIRQSPGKGLEWIGHIYYSGNTNYNPSLKSRLTISIDTSKTQFSLKLSSVTAADTAIYYCVRDRVTGAFDIWGQGTMVTVSS[human IgG1 constant region not written out]GGGGSGGGGSGGGGSEVQLLESGGGLVQPGGSLRLSCAASGFTFSSYAMSWVRQAPGKGLEWVSQISPAGGYTNYADSVKGRFTISRDNSKNTLYLQMNSLRAEDTAVYYCARGELPYFRMSKVMDVWGQGTLVTVSSGGGGSGGGGSGGGGSEIVLTQSPGTLSLSPGERATLSCRASQFLSSYLAWYQQKPGQAPRLLIYGASARASGIPDRFSGSGSGTDFTLTISRLEPEDFAVYYCQQYLASPATFGQGTKVEIK
light: DIQMTQSPSSLSASVGDRVTITCQASQDISNYLNWYQQKPGKAPKLLIYDASNLETGVPSRFSGSGSGTDFTFTISSLQPEDIATYFCQHFDHLPLAFGGGTKVEIKRTVAAPSVFIFPPSDEQLKSGTASVVCLLNNFYPREAKVQWKVDNALQSGNSQESVTEQDSKDSTYSLSSTLTLSKADYEKHKVYACEVTHQGLSSPVTKSFNRGEC
notes: also called Construct 11 bsAb
[1]
  Kd: 0.25 nM
[2]
  Kd: < 0.1 nM
